{"source": "paper PMC6919601", "about": "“Identification of Plasmodium dipeptidyl aminopeptidase allosteric inhibitors by high throughput screening” (PLoS ONE, 2019)", "note": "The campaign covered roughly 110,000 compounds. About 230 (0.21%) showed an effect of 50% or more. The list shows a part of the results.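 Note: 30 min substrate incubation versus DMSO and 10 µM JCP410 controls.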", "data": [{"target": "DPAP1 (Plasmodium falciparum, UniProt Q8IIJ9)", "sequence (Q8IIJ9 whole entry, looked up)": "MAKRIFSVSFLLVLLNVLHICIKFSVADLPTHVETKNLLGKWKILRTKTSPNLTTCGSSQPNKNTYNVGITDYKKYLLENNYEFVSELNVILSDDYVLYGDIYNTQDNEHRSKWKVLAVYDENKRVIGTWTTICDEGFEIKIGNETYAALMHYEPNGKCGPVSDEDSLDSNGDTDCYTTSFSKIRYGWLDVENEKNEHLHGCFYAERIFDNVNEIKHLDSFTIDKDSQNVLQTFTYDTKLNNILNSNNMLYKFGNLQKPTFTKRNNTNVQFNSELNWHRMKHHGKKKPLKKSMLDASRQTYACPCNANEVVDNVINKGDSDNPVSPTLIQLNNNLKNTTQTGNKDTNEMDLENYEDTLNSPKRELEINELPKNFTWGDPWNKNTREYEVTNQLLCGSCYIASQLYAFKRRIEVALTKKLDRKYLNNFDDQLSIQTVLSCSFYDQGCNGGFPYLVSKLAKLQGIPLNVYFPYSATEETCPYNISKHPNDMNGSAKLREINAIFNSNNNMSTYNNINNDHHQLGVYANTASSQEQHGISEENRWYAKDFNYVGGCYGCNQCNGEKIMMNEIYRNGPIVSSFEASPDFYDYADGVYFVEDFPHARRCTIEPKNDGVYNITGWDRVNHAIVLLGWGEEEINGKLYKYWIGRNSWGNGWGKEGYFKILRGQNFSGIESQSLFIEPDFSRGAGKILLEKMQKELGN", "test": "primary screen, percent inhibition; read by cleavage of a fluorogenic dipeptide substrate; higher = more effect of the substance", "parameters": "species or system P. falciparum D10 trophozoite lysates; single well", "units": {"% Inhibition @ 10 uM": "%"}, "values": [{"smiles": "O=C(c1ccc(Br)o1)N1N=C(c2ccc(Cl)cc2)CC1c1ccco1", "note": "(stereo not shown)", "% Inhibition @ 10 uM": 9.48}, {"smiles": "Cc1ccc2cc(CCN3C(=O)c4ccccc4C3=O)c(O)nc2c1C", "% Inhibition @ 10 uM": -4.81}, {"smiles": "CCC(C)C(NC(=O)OCc1ccccc1)C(=O)NC(CCCCNC(=O)OCc1ccccc1)C(=O)CO", "note": "(stereo not shown)", "% Inhibition @ 10 uM": 5.05}, {"smiles": "N#CCNC(=O)[C@H](CSCc1ccccc1)NC(=O)c1ccc(C(=O)c2ccccc2)cc1", "% Inhibition @ 10 uM": -3.49}, {"smiles": "Cc1ccc(-n2nnnc2Cc2cc3c(cc2Br)OCO3)cc1", "% Inhibition @ 10 uM": -0.92}, {"smiles": "CC(=O)c1sc(Nc2cccc(C(F)(F)F)c2)nc1C", "% Inhibition @ 10 uM": 1.51}, {"smiles": "COc1cc(C2C3=C(O)CCCC3=NC(C)=C2C(=O)OCCOc2ccccc2)cc(OC)c1OC", "note": "(stereo not shown)", "% Inhibition @ 10 uM": -2.6}, {"smiles": "CCc1nnc(NC(=O)C2=CCN(S(=O)(=O)c3ccc(F)cc3)CC2)s1", "% Inhibition @ 10 uM": 1.8}, {"smiles": "Cc1cccc(NC(=O)c2ccc3c(Cl)c4c(nc3c2)CCCC4)n1", "% Inhibition @ 10 uM": 1.66}, {"smiles": "COc1cc(NC(=O)NC23CC4CC(CC(C4)C2)C3)c(OC)cc1Cl", "% Inhibition @ 10 uM": -4.01}, {"smiles": "CCn1cc(CCCC(=O)O)c2ccccc21", "% Inhibition @ 10 uM": 6.3}, {"smiles": "COc1ccccc1/C=C/C(=O)Nc1cc2c(ccc3ccccc32)oc1=O", "% Inhibition @ 10 uM": 7.49}, {"smiles": "O=C1CC(c2ccco2)CC(=O)C1=CNc1ccc(Cl)cc1C(=O)c1ccccc1", "note": "(stereo not shown)", "% Inhibition @ 10 uM": -4.49}, {"smiles": "CCN(CC)CCNS(=O)(=O)c1cccc2nsnc12", "% Inhibition @ 10 uM": 1.42}, {"smiles": "O=C(Nc1c(C(=O)c2cccs2)oc2ccccc12)c1cccs1", "% Inhibition @ 10 uM": 5.84}, {"smiles": "CCN(CC)S(=O)(=O)c1cccc(C(=O)Nc2ccc(S(=O)(=O)N3CCOCC3)cc2)c1", "% Inhibition @ 10 uM": -7.62}, {"smiles": "Cc1nc2c(-c3ccccc3)cnn2c(N)c1-c1ccccc1", "% Inhibition @ 10 uM": 0.913}, {"smiles": "CC1(C)CC(=O)C2=C(C1)c1c(ccc3ccccc13)NC2c1ccco1", "note": "(stereo not shown)", "% Inhibition @ 10 uM": 5.45}, {"smiles": "Cc1cs/c(=N/C(=O)c2ccccc2)n1-c1ccc(Cl)cc1", "% Inhibition @ 10 uM": 0.35}, {"smiles": "COc1ccc(-n2nc3cc(C)c(NC(=O)COc4ccccc4)cc3n2)cc1", "% Inhibition @ 10 uM": -2.65}, {"smiles": "CC(C)C(NS(=O)(=O)c1cccs1)C(=O)NCc1ccccc1Cl", "note": "(stereo not shown)", "% Inhibition @ 10 uM": -4.07}, {"smiles": "Cc1ccc(C2C(C#N)=C(N)SC3=C2C(=O)CCC3)o1", "note": "(stereo not shown)", "% Inhibition @ 10 uM": 2.01}, {"smiles": "CC1CCCCN1c1ncnc2onc(-c3ccc(Cl)cc3)c12", "note": "(stereo not shown)", "% Inhibition @ 10 uM": 4.28}, {"smiles": "N#Cc1cc(C(=O)Nc2ccccc2)n2ccccc12", "% Inhibition @ 10 uM": -1.08}, {"smiles": "Cc1cc(CN2CCOCC2)c(O)c(CN2CCOCC2)c1", "% Inhibition @ 10 uM": -2.44}, {"smiles": "CCOc1ccc(N(CC(=O)Nc2ccccc2Br)S(C)(=O)=O)cc1", "% Inhibition @ 10 uM": -1.95}, {"smiles": "c1cnc(N2CCN(Cc3ccco3)CC2)nc1", "% Inhibition @ 10 uM": -8.13}, {"smiles": "O=C(O)CC(c1cccs1)N1Cc2ccccc2C1=O", "note": "(stereo not shown)", "% Inhibition @ 10 uM": -1.03}, {"smiles": "CCOCC(=O)Nc1c(C(=O)N2CCN(c3ncccn3)CC2)oc2ccccc12", "% Inhibition @ 10 uM": -3.11}, {"smiles": "CC1=C(CCN(C)C2CCN(C)CC2)C(C)(C)CCC1", "% Inhibition @ 10 uM": 2.1}, {"smiles": "COc1cccc(Nc2nc(-c3ccccc3)cs2)c1", "% Inhibition @ 10 uM": -0.76}, {"smiles": "O=C(NCCc1ccccc1)C1CCC(CNc2c(N3CCCCC3)c(=O)c2=O)CC1", "note": "(stereo not shown)", "% Inhibition @ 10 uM": 1.02}, {"smiles": "COC(=O)Cn1c(=N)sc2ccccc21", "% Inhibition @ 10 uM": 1.9}, {"smiles": "O=C1CC(N2CCN(Cc3ccc4c(c3)OCO4)CC2)C(=O)N1c1ccccc1Cl", "note": "(stereo not shown)", "% Inhibition @ 10 uM": 0.35}, {"smiles": "CCn1c(C(=O)NCc2cccs2)cc2sc(Cl)cc21", "% Inhibition @ 10 uM": -8.58}, {"smiles": "COc1cc(OC)c(/C=C2/SC(=O)N(CC(=O)N3CCN(c4ccccc4)CC3)C2=O)c(OC)c1", "% Inhibition @ 10 uM": 0.795}, {"smiles": "COc1ccc(O)c(C2NC(C(=O)O)Cc3c2[nH]c2ccccc32)c1", "note": "(stereo not shown)", "% Inhibition @ 10 uM": -0.254}, {"smiles": "Cc1ccc2c(c1)-c1onc(C(=O)N(Cc3ccco3)CC3CCCO3)c1CO2", "note": "(stereo not shown)", "% Inhibition @ 10 uM": -3.47}, {"smiles": "CCCCOc1ccc(/C=c2\\sc3nc(-c4cccnc4)nn3c2=O)cc1", "% Inhibition @ 10 uM": 0.487}, {"smiles": "COCCCNC(=O)Cn1c(=S)[nH]c2c([nH]c3ccc(OC)cc32)c1=O", "% Inhibition @ 10 uM": -0.495}, {"smiles": "CC(C)(C)OC(=O)N(CC(=O)CNC(=O)[C@H](Cc1ccc2ccccc2c1)NC(=O)OCc1ccccc1)Cc1ccccc1", "% Inhibition @ 10 uM": -9.15}, {"smiles": "CC1(C)CC(=O)c2c(nn(-c3ccccc3)c2-c2cccnc2)C1", "% Inhibition @ 10 uM": 6.15}, {"smiles": "COc1ccc2c(Sc3ccccc3)c(C(=O)NCc3ccccn3)[nH]c2c1", "% Inhibition @ 10 uM": -6.3}, {"smiles": "O=C(O)CSc1ccc(Oc2ccc(SCC(=O)O)cc2)cc1", "% Inhibition @ 10 uM": 4.82}, {"smiles": "CCCCOc1ccc(CN2CCC(O)CC2)cc1", "% Inhibition @ 10 uM": -5.42}, {"smiles": "CC(C)CNC(=O)c1cccc(NC(=O)CN2C(=O)c3ccccc3C2=O)c1", "% Inhibition @ 10 uM": -3.95}, {"smiles": "Cc1ccc2nc(N(CCCN(C)C)C(=O)C3COc4ccccc4O3)sc2c1", "note": "(stereo not shown)", "% Inhibition @ 10 uM": 2.25}, {"smiles": "Cc1ccc2c(c1)-c1onc(C(=O)N(CC(C)C)CC(C)C)c1CO2", "% Inhibition @ 10 uM": -3.47}, {"smiles": "Cn1ncc2c(NCCCN3CCOCC3)ncnc21", "% Inhibition @ 10 uM": -1.47}]}]}
